Experimental data reported in PMC4336329 (PLoS ONE, 2015).
Hit rate of the full screen: of about 310,000 compounds, about 2,200 (0.71%) showed an effect of 50% or more. Effects have a minus sign here. The list shows a part of the results.

Biological target: human ether-à-go-go-related gene (hERG) potassium channel (human, UniProt Q12809)
Test: primary screen, population patch clamp on CHO cells stably expressing hERG

human ether-à-go-go-related gene (hERG) potassium channel, sequence (Q12809 whole entry, looked up): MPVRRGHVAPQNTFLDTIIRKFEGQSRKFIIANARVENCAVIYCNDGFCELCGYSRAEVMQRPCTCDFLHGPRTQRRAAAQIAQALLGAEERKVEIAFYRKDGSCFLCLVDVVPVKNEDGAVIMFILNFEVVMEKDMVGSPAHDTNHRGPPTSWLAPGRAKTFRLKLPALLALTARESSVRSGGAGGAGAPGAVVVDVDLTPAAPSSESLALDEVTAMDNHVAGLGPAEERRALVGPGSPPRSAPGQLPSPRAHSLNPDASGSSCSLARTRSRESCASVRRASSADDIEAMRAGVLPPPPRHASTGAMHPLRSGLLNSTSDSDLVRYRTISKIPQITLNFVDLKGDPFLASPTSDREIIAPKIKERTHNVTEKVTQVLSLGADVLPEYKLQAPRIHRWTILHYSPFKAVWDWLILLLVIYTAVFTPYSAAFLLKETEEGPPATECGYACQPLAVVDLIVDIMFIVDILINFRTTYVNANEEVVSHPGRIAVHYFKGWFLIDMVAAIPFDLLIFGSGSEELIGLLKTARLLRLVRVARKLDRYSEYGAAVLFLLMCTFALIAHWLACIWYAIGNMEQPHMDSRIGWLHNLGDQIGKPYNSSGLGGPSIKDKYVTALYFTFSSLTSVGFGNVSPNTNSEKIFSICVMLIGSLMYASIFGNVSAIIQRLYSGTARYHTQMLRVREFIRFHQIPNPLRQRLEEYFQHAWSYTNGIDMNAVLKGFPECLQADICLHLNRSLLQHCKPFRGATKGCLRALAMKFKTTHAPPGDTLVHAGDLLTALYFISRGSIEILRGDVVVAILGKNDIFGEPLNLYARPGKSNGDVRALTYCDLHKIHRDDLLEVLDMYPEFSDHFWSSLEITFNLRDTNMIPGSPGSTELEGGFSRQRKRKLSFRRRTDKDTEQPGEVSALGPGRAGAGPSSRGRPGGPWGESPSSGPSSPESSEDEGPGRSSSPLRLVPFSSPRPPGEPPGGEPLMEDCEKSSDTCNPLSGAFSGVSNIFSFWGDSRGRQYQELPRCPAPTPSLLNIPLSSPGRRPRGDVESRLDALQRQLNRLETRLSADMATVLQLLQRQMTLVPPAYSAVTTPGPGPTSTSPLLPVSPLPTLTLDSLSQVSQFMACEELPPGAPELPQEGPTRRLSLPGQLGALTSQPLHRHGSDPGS

SMILES | hERG current change (%, negative = inhibition) at 1uM
Cc1cc(C)c(Cn2c(C(=O)O)c(C=O)c3ccccc32)c(C)c1 | 2.18%
S=C(NCCc1c[nH]c2ccccc12)NC1CCCC1 | 10.4%
Cn1cc(Br)c(-c2cccc(NC(=O)CC(C)(C)CC(=O)O)c2)n1 | 11.1%
O=C(NCc1ccc(F)cc1)Nc1ccc(Cl)cc1 | 1.34%
CC(=O)c1cc2c(=O)c3ccccc3oc2nc1C | 7.98%
COc1ccc(-c2cc(CCCC(=O)NCCc3ccc(OC)cc3OC)no2)cc1 | 7.1%
COc1cc(SC)ccc1C(=O)N1CCN(c2ccc(O)cc2)CC1 | 4.82%
Cc1noc(C)c1S(=O)(=O)N(CC(=O)N1CCc2ccccc21)c1ccc(C(C)C)cc1 | 12.6%
Cc1cccc(-c2nc3ccccc3c(=O)n2NC(=S)N(C)C)c1 | 0.804%
COc1ccccc1N1CCN(C(=O)c2ccc(Cn3c(=S)[nH]c4cc5c(cc4c3=O)OCO5)cc2)CC1 | 11.7%
CCOC(=O)c1[nH]c(C)c(C(=O)N2CCN(c3ccccc3OC)CC2)c1C | 9.45%
O=C(CN1C(=O)NC2(CCCC2)C1=O)Nc1ccc(F)c([N+](=O)[O-])c1 | 7.95%
Cc1cc(=O)oc2cc(O)c(N=Nc3ccccc3)cc12 | 13.6%
Cc1nc2ccccc2n1/N=C/c1cccnc1 | 3.21%
CCNC(=O)/C(=C/c1ccc2c(c1)OCO2)NC(=O)c1ccc(Br)cc1 | -30.7%
CC1=Nc2ccc3ccccc3c2C1(C)C | 6.85%
Cc1cc(C)cc(OCC(=O)NCC2CCCO2)c1 (stereo not drawn) | -4.91%
CC1=C/C(=C\c2ccc3c(c2)OCO3)C(=O)S1 | 7.42%
CCCOc1ccccc1C(=O)N(Cc1cccs1)C1CCS(=O)(=O)C1 (stereo not drawn) | 2.85%
CCN(CC)CCOC(=O)C1c2ccccc2Oc2ccccc21.Cl | -0.841%
Cc1ccc(C(=O)Nc2nc(C)c(C)s2)o1 | 4.02%
Nc1nnc(CSCc2ccc(Cl)cc2)s1 | 2.77%
c1cc(CCN2CCCC2)ccn1 | 4.25%

SMILES | hERG current change (%, negative = inhibition) at 1uM
CCOC(=O)C(=CN(CCc1ccccc1)CC(=O)OC)C(=O)OCC | 7.6%
O=C(c1ccc([N+](=O)[O-])s1)N1CCN(c2ccc(C(F)(F)F)cn2)CC1 | -35%
C=CCS(=O)(=O)c1nc2ccccc2s1 | 12.8%
COc1ccc(/C=N/NC(=O)c2ccc(F)cc2)cc1CN1CCc2cc(OC)c(OC)cc2C1C (stereo not drawn) | -99.1%
COc1ccc2c(c1)c(CC(=O)OC(C)C(=O)N(C)C)c(C)n2C(=O)c1ccc(Cl)cc1 (stereo not drawn) | -1.81%
O=C(Nc1ccccn1)c1ccc(C(=O)c2ccccc2)cc1 | 7.17%
CSc1ccccc1OCc1cc(C(=O)N(C)C(C)c2nc(C)cs2)no1 (stereo not drawn) | -23.9%
C(=N\Nc1nc2ccccc2[nH]1)/c1ccncc1 | 14.2%
COc1cc(OC)cc(-c2nnc(SCC(=O)N(C(C)C)C(C)C)o2)c1 | 3.08%
CC(C)Oc1cccc(C(=O)O)c1 | 7.04%
Cc1c(C)c2ccc(OCC(=O)N(C)C3CCS(=O)(=O)C3)c(C)c2oc1=O (stereo not drawn) | 27.6%
CCCCN1CCC(C#N)(Nc2ccccc2)CC1 | 9.89%
Nn1c(SCC(=O)Nc2ccc3c(c2)OCO3)nncc1=O | 12%
CCOC(=O)Cc1c(C)nc2cc(-c3ccc(C(C)(C)C)cc3)[nH]n2c1=O | -5.14%
CCN(C(=O)COC(=O)/C=C/c1c(C)nn(-c2ccccc2)c1C)C1CCS(=O)(=O)C1 (stereo not drawn) | 6.62%
COc1cccc(-c2nc(=S)c3c(n2Cc2ccco2)CCCC3)c1 | 8.86%
CCOc1ccc(NC(=S)NC(=O)/C=C/c2ccc(OC)cc2)c([N+](=O)[O-])c1 | 8.86%
Cc1cc(NC(=O)CCCn2nc([N+](=O)[O-])c(Br)c2C)no1 | 5.68%
NCCCS(=O)(=O)O | 11.6%
CC1=NN(c2ccccc2)C(=O)C1/C=C1\C(=O)NC(=O)N(c2cc(C)cc(C)c2)C1=O (stereo not drawn) | 10.6%
CCn1c(O)c(/C=N/NC(=O)c2ccncc2)c(=O)[nH]c1=S | 19.4%
COc1cccc(NC(=O)c2cnc(SCC(=O)NCc3ccc4c(c3)OCO4)n(C)c2=O)c1 | 12.2%
